# Source: PubChem BioAssay AID360 (National Center for Advancing Translational Sciences (NCATS), 2006)
# In all, about 48,000 compounds went through this assay and about 550 (1.1%) were called active. Inconclusive results (about 4%) are left out. Rule as the data show it: active = potency below about 15 µM; inconclusive = mostly about 16 µM to 33 µM; inactive = weaker than that. The list shows a part of the results.
# Biological target: Lysosomal acid glucosylceramidase (Homo sapiens) (UniProt P04062)
# Test: Glucocerebrosidase;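 also: the screen sought inhibitors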
# Conditions: purified enzyme, resorufin glucoside fluorescence (screen aimed at inhibitors), 20 min
# Outline: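 Compounds titrated against 0.2 nM normal enzyme, 30 uM resorufin beta-D-glucopyranoside substrate, citrate/phosphate buffer with taurocholate and tween-20, pH 5.9. Reaction ran 20 min at room temperature; fluorescence (Ex 548/Em 600) gave AC50.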
# Potency is read from the fitted curve at half-maximal effect.
# Chain of UniProt P04062 (P04062 whole entry, looked up): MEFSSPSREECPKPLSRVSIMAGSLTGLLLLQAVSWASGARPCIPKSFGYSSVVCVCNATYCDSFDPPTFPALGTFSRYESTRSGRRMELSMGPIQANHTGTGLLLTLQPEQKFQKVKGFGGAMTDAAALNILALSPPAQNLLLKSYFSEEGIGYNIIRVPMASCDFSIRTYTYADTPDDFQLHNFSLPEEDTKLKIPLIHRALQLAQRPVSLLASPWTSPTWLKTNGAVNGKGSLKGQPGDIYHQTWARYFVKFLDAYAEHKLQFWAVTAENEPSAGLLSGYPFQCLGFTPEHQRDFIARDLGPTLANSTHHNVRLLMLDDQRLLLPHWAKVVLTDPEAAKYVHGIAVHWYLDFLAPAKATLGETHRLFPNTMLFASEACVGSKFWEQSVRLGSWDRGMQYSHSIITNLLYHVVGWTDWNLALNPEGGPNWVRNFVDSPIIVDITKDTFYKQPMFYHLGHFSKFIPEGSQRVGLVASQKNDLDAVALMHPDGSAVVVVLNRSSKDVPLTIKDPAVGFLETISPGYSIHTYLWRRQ
row,Structure (SMILES),Potency
1,O=C(CN1C(=O)C2CCCCN2C(=O)c2ccccc21)N1CCCc2ccccc21 (stereo not given),inactive: > 76.9 µM
2,COc1ccccc1-c1nnc(SCc2ccccn2)n1C,inactive: > 76.9 µM
3,C=C(C)Cn1c(CCCNC(=O)CCC)nc2ccccc21,inactive: > 76.9 µM
4,O=C(c1ccc(Br)o1)N(c1ccc(Br)cc1)C1C=CS(=O)(=O)C1 (stereo not given),inactive
5,Cc1ccnc(-n2c(CCN3C(=O)c4ccccc4C3=O)nc3ccccc3c2=O)c1,inactive: > 76.9 µM
6,CCOC(=O)c1ccccc1NC(=O)CCNC(=O)Cn1cnc2ccccc2c1=O,inactive: > 76.9 µM
7,COc1ccc(-c2nsc3c(N4CCN(C(=O)c5ccco5)CC4)ncnc23)cc1,inactive: > 76.9 µM
8,Cc1ccc(-c2noc(CN(C(=O)C34CC5CC(CC(C5)C3)C4)C(C)C)n2)cc1,inactive: > 76.9 µM
9,O=C(CN1CCCCC1)Nc1cc(Cl)ccc1Cl,inactive: > 76.9 µM
10,CCC1CCCCN1C(=O)CSc1nnc(CNC(=O)c2ccco2)o1 (stereo not given),inactive: > 76.9 µM
11,COc1ccccc1CNC(=O)C1CC(=O)N(C2CCCC2)C1 (stereo not given),inactive: > 76.9 µM
12,COc1cccc(C(CC(=O)NCCN2CCOCC2)NS(=O)(=O)c2ccc(C)cc2)c1OC (stereo not given),inactive: > 76.9 µM
13,CCc1ccc(S(=O)(=O)NCc2cn3ccccc3n2)s1,inactive
14,O=C1OCCC1Sc1nc2ccccc2n1Cc1ccccc1 (stereo not given),inactive: > 76.9 µM
15,CCN1CCN(Cc2nc3c(c(=O)n(C)c(=O)n3C)n2CCCc2ccccc2)CC1,inactive: > 76.9 µM
16,CCS(=O)(=O)c1ccc(O)c(NC(=O)Nc2ccccc2)c1,inactive: > 76.9 µM
17,COc1ccc(N2CCC(CNC(=O)Nc3ccc(OC)cc3OC)C2)cc1 (stereo not given),inactive: > 76.9 µM
18,CCOC(=O)Nc1ccc2c(c1)N(C(=O)CN1CCN3CCCC3C1)c1ccccc1CC2 (stereo not given),inactive: > 76.9 µM
19,Cc1cccc(NC(=O)CS(=O)(=O)c2c[nH]c3ccccc23)c1C,inactive: > 76.9 µM
20,CCC1CCCCN1CCCNC(=O)Cn1nc(-c2ccc(C)cc2)ccc1=O (stereo not given),inactive: > 76.9 µM
21,COC(=O)c1ccc(Cn2c(CN3CCOCC3)nc3ccccc3c2=O)o1,inactive: > 76.9 µM
22,Cc1noc(C)c1COC(=O)C1COc2ccccc2O1 (stereo not given),inactive: > 76.9 µM
23,COc1ccc(Br)cc1CNC(=O)CCc1nc(-c2ccc(C)cc2)no1,inactive: > 76.9 µM

row,Structure (SMILES),Potency
1,Cc1ccc(S(=O)(=O)N2CCCN(S(=O)(=O)c3ccc(C(F)(F)F)cc3)CC2)cc1,inactive: > 76.9 µM
2,O=c1nc(N2CCOCC2)ccn1-c1nc(-c2ccccc2)oc1-c1ccccc1,inactive: > 76.9 µM
3,O=c1[nH]c2c(cc1CNCCN1CCOCC1)c(-c1cccc(F)c1)nn2-c1ccccc1,inactive: > 76.9 µM
4,CCN(CC)S(=O)(=O)c1cccc(C(=O)OCc2cc(=O)n3nc(C)sc3n2)c1,inactive: > 76.9 µM
5,Cc1cc(Br)c(S(=O)(=O)n2nnc3ccccc32)cc1C,inactive: > 76.9 µM
6,c1csc(-c2csc3ncnc(NCCCN4CCOCC4)c23)c1,inactive
7,Cn1c(=O)c2cc(S(=O)(=O)N3CCOCC3)ccc2n(C)c1=O,inactive: > 76.9 µM
8,CC(CC(C)C(=O)N1CCOCCN(C(=O)C(C)CC(C)C(=O)O)CCOCC1)C(=O)O (stereo not given),inactive: > 76.9 µM
9,O=C(NC1CCCC1)c1nc2c(nnn2Cc2cccc(Cl)c2)c(=O)[nH]1,inactive: > 76.9 µM
10,O=C(Nc1ccccc1)NC1(C(=O)NCc2ccc3c(c2)OCO3)CCCCC1,inactive: > 76.9 µM
11,NCCN1CCN(CCN)CC1,inactive: > 76.9 µM
12,CCN(CC)C(=O)c1cn(C)c(=O)c2cc(OC)c(OC)cc12,inactive: > 76.9 µM
13,NC(=O)CCn1c(=O)oc2ccccc21,inactive: > 76.9 µM
14,CNC(=O)n1ccc(C(=O)N2CCCCC2)n1,inactive: > 76.9 µM
15,CCN1C=C(Cc2cccs2)C2=C(C1)C(c1cccs1)C(C#N)=C(N)O2 (stereo not given),inactive
16,COC(=O)c1sccc1NC(=O)c1cc(C)on1,inactive: > 76.9 µM
17,CCCC(=O)Nc1ccc(N2CCN(C(=O)c3cccs3)CC2)cc1,inactive: > 76.9 µM
18,COc1ccc(OC)c(C2C(C(=O)O)c3ccccc3C(=O)N2C)c1 (stereo not given),inactive: > 76.9 µM
19,CCCc1cc(=O)[nH]c(SCC(=O)N(CC)Cc2ccccc2)n1,inactive: > 76.9 µM
20,Cc1ccccc1C(=O)NCc1ccncc1,inactive: > 76.9 µM
21,CC(=O)N(C)C1(c2nnnn2CCOC(=O)Nc2cccc3ccccc23)CCCC1,inactive: > 76.9 µM
22,CC(C)CNC(=O)c1cc(-c2ccc(Cl)c(Cl)c2)on1,inactive: > 76.9 µM
23,Cc1ccc(CNC(=O)C2CCCCC2C(=O)O)cc1 (stereo not given),inactive: > 76.9 µM

row,Structure (SMILES),Potency
1,COc1ccc(C(C)=O)cc1COC(=O)c1ccc2c(c1)OCO2,inactive: > 76.9 µM
2,CCOC(=O)C1=C(C)NC(=O)NC1c1ccc(OCC(=O)OC)c(OC)c1 (stereo not given),inactive: > 76.9 µM
3,COC(=O)c1ccc(C2CC(=O)NC3=C2C(=O)CCC3)cc1 (stereo not given),inactive: > 76.9 µM
4,COC(=O)c1c(NC(=O)c2ccco2)sc(C(=O)N2CCCC2)c1C,inactive: > 76.9 µM
5,Cn1c(=NC(=O)c2cnccn2)sc2ccccc21,inactive: > 76.9 µM
6,O=C1CN(C(=O)COC(=O)Cc2ccsc2)c2ccccc2N1,inactive: > 76.9 µM
7,Nc1nc2c3ccccc3nc(Cc3ccccc3)n2n1,inactive: > 76.9 µM
8,Cc1ccc(NC2=NC(c3ccc(C)cc3)n3c(nc(C)cc3=O)N2)cc1 (stereo not given),inactive: > 76.9 µM
9,COCCNC(=O)Cn1c(=O)n(CCC(=O)NCCc2ccccc2)c(=O)c2ccccc21,inactive: > 76.9 µM
10,COc1ccc(C(=O)n2nc(-c3ccc(C)cc3)nc2N)cc1OC,inactive: > 76.9 µM
11,CCS(=O)(=O)N1CCN(C(=O)CC(C)C)CC1,inactive: > 76.9 µM
12,O=C(NCCN1CCCCCC1)C1CC(=O)N(CCc2ccccc2)C1 (stereo not given),inactive: > 76.9 µM
13,CCCCSc1nnc([C@H](C)NC(=O)OC(C)(C)C)o1,inactive: > 76.9 µM
14,CCn1c(SCC(=O)N(C(C)C)C(C)C)nnc1-c1cc2ccccc2cc1O,inactive: > 76.9 µM
15,Cn1c(=O)c2c(nc(SCC(=O)O)n2Cc2cccc(C(F)(F)F)c2)n(C)c1=O,inactive: > 76.9 µM
16,CCC(C)N(CC(=O)NCc1ccc(OC)cc1)C(=O)c1csnn1 (stereo not given),inactive: > 76.9 µM
17,CCOC(=O)c1sc(NC(=O)CSc2ccccn2)c(C#N)c1C,inactive: > 76.9 µM
18,O=C(CS(=O)(=O)Cc1ccccc1)N1CCN(C(=O)c2ccco2)CC1,inactive: > 76.9 µM
19,COc1ccccc1N1CCN(Cc2nc(N)nc(Nc3ccc(C)c(Cl)c3)n2)CC1,active: 5.31 µM
20,CC(=O)c1cc2c(cc1NC(=O)c1cc3nc(C(C)C)cc(C(F)(F)F)n3n1)OCO2,inactive: > 76.9 µM
21,CC(=O)N1CCN(CC(=O)Nc2c(Cl)cc(Cl)cc2Cl)CC1,inactive: > 76.9 µM
22,CCOC(=O)N1CCN(Cc2cn3ccccc3n2)CC1,inactive: > 76.9 µM
23,O=C(NCCCN1CCCC1=O)NC12CC3CC(CC(C3)C1)C2,inactive: > 76.9 µM

row,Structure (SMILES),Potency
1,O=C(CSc1nnnn1-c1ccc2c(c1)OCCO2)Nc1nc2c(s1)CCCC2,inactive: > 76.9 µM
2,CCOc1ccccc1OCc1nn2c(-c3ccc(C)cc3)nnc2s1,inactive: > 76.9 µM
3,COc1ccc(N2CCN(C(CNC(=O)c3ccco3)c3cccnc3)CC2)cc1 (stereo not given),inactive: > 76.9 µM
4,CC(C)(C)Sc1ccc(N)nc1,inactive: > 76.9 µM
5,NC(=O)C1CCN(CCC(=O)Nc2cccc(Cl)c2)CC1,inactive: > 76.9 µM
6,O=C1CCCCCN1C(=O)c1cccc(C(=O)N2CCCCCC2=O)c1,inactive: > 76.9 µM
7,CCCCN(C(=O)CN1C(=O)C2CC=CCC2C1=O)c1c(N)n(CCC)c(=O)[nH]c1=O (stereo not given),inactive: > 76.9 µM
8,COc1ccc(S(=O)(=O)NC(C(C)C)C(C)C)cc1OC,inactive: > 76.9 µM
9,CCC1(C)Cc2c(sc3c2c2ncnn2c2nnc(SCC(=O)NCc4ccco4)n32)CO1 (stereo not given),inactive: > 76.9 µM
10,COc1ccc(-c2noc(CN(C)S(=O)(=O)c3ccc(C)cc3)n2)cc1,inactive: > 76.9 µM
11,COc1ccccc1-c1n[nH]c(=S)o1,inactive: > 76.9 µM
12,CCCSc1nc2c(c(=O)n1-c1ccc(OCC)cc1)SCC2,inactive: > 76.9 µM
13,Cc1ccc(-c2nnc3c4ccccc4c(C)nn23)cc1S(=O)(=O)N1CCN(CCO)CC1,inactive
14,COCCNCC#CCOc1ccc(OC)cc1,inactive: > 76.9 µM
15,Cc1cccc2cc(CN(CCc3ccccc3)C(=O)N3CCOCC3)c3nnnn3c12,inactive: > 76.9 µM
16,CCN(CC)S(=O)(=O)c1ccc(NC2c3ncccc3C(=O)N2Cc2ccccc2)cc1 (stereo not given),inactive: > 76.9 µM
17,COc1ccc(NC(=O)c2oc3ccccc3c2NC(=O)c2ccc(OC)c(OC)c2)c(OC)c1,inactive: > 76.9 µM
18,COc1ccc(S(=O)(=O)N(C)CC(=O)N2CCCCC2)cc1Cl,inactive: > 76.9 µM
19,O=C(c1ccc(C#CC2(O)CCCCC2)cc1)N1CCOCC1,inactive: > 76.9 µM
20,COc1cccc(OC)c1OCCCSc1nc(C)cc(=O)[nH]1,inactive: > 76.9 µM
21,COc1cccc(OCC(O)CN2CC(C)CC(C)C2)c1 (stereo not given),inactive: > 76.9 µM
